Results published in PubChem BioAssay AID1347417 (National Center for Advancing Translational Sciences (NCATS), 2020).
The whole screen tested about 120,000 compounds, of which about 5,300 (4.4%) were called active. Inconclusive means that the source gave no clear call. Such entries were picked first, then a sample of the others. Calls come from the whole dose curve; as a rule, active = well fitted inhibition curve with a large enough effect; inconclusive = small, poorly fitted or top-dose-only effect; inactive = no such curve, though single readings can be large or run the other way. Where the call is inconclusive, the potency comes from a doubtful curve fit.

Test: qHTS Primary assay for Inhibitors of Plasmodium falciparum Dd2 growth in vitro; note: nearly all actives have a fitted effect of over 65% in size;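 for activity, negative = inhibition: plate controls were DMSO vehicle for no effect and reference drug for full effect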
Settings: P. falciparum Dd2 growth, SYBR Green, 72 h; activity, negative = inhibition: at 28.9 µM (top of the series) unless noted; series mostly up to 28.9 µM
Outline: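 Infected erythrocytes (Dd2, 0.3% parasitemia, 2.5% hematocrit final) are added to compound in RPMI-1640/Albumax II medium, grown 72 h at 37C in low oxygen, then lysed with saponin/Triton-X containing SYBR Green and read by fluorescence.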
Potency is the fitted concentration of half-maximal effect; tags give direction and shape of the fitted curve.

Structure (SMILES) | activity, negative = inhibition | Potency | outcome
CN(C)C[C@@H]1CN(c2ccncn2)C[C@H]1NC(=O)Cn1c(=O)oc2ccccc21 | inactive: 19.4% |  | 
CC(C)=CCC1(CO)CCCN(C(=O)c2cccc(CO)n2)C1 (stereo not given) | inactive: 1.14% |  | 
C1CCC(COCCc2noc(C3CNC3)n2)C1 |  | inconclusive: 2 µM [inhibitor, full curve, poor fit] | 
Cc1ccc(CN(C)Cc2ccc(-c3ccccc3)cc2)cc1 |  | inconclusive: 20 µM [inhibitor, partial curve, poor fit] | 
COC[C@@H]1CN(Cc2cccc(C(F)(F)F)c2)C[C@H]1C(=O)NC1CC1 |  | inconclusive: 11.2 µM [inhibitor, single point] | 
Cc1noc(-c2cn(C3CCCN(C(=O)c4ccccc4)C3)nn2)n1 (stereo not given) | inactive: 14.3% |  | 
COc1ccccc1CNC(=O)Cn1ncc2c(=O)oc3ccc(C)cc3c21 |  | inconclusive: 17.8 µM [inhibitor, single point] | 
Cc1ccc(Nc2c(-c3ccc(C)cc3)nc3cnccn23)cc1 |  | inconclusive: 11.2 µM [inhibitor, single point] | 
O=C(Nc1ccc([C@@H](O)[C@H]2COCC(=O)N2Cc2ccccc2F)cc1)c1cccc(F)c1 |  | inconclusive: 10 µM [inhibitor, single point] | 
Cc1cc(F)ccc1NC(=O)c1cnc(-c2ccc(F)cc2)nc1-c1ccncc1 |  | inconclusive: 20 µM [inhibitor, single point] | 
Cc1cc(C(=O)N(CC2CCN(Cc3ccccc3C)CC2)CC2CCCO2)c(C)o1 (stereo not given) |  | inconclusive: 20 µM [inhibitor, single point] | 
Clc1ccc(CCNc2ncnc3c2c(-c2ccccc2)cn3-c2ccccc2)cc1 |  | inconclusive: 11.2 µM [inhibitor, single point] | 
COc1ccc(C(=O)CN2C(=O)N(c3cc(C)cc(C)c3)S(=O)(=O)c3ccccc32)cc1 |  | inconclusive: 8.91 µM [inhibitor, partial curve] | 
CS(=O)(=O)c1ncc(Cl)c(C(=O)Nc2c(C(=O)Nc3ccccc3)oc3ccccc23)n1 |  |  | inactive
CCOc1ccccc1CNC(=O)c1cc(NC(C)=O)cc2nc(C)ccc12 |  | inconclusive: 20 µM [inhibitor, single point] | 
CC(C)N1CCC(N2CCN(Cc3cn[nH]c3-c3cccc(F)c3)CC2CCO)CC1 (stereo not given) | inactive: 3.8% |  | 
Cc1cccc(Nc2ncc(NC(=O)c3cccc(F)c3)c(Nc3cccc(C)c3)n2)c1 |  | active: 2.24 µM | 
CCC(CC)C(=O)Nc1ccc2nc(SCc3ccccc3)sc2c1 |  | inconclusive: 17.8 µM [inhibitor, single point] | 
CN1c2cc(C(=O)N3CCN(c4ccc(Cl)cc4)CC3)ccc2C(=O)N2CCCCC21 (stereo not given) |  | inconclusive: 5.01 µM [inhibitor, partial curve, poor fit] | 
O=C1O[C@@H]2[C@H]3[C@@H]([C@H]1C[C@H]2O)N(c1ccccc1)C(=S)N3Cc1ccccc1 |  | inconclusive: 3.98 µM [inhibitor, full curve, poor fit] | 

Structure (SMILES) | activity, negative = inhibition | Potency | outcome
COc1ccc(S(=O)(=O)c2c(Nc3c(C)cccc3C)sc(C(=O)c3ccc4c(c3)OCO4)c2N)cc1 |  | inconclusive: 17.8 µM [inhibitor, single point] | 
Cc1cc(CN(C)C(=O)c2cc(COc3cncc(Cl)c3)on2)on1 |  | inconclusive: 17.8 µM [inhibitor, partial curve, poor fit] | 
CC(=O)NCCC1CCCN(Cc2oc3ccc(C)cc3c2C)C1 (stereo not given) | inactive: -15.1% |  | 
COc1ccc(NC(=O)CCC2CCCN(S(=O)(=O)c3ccc(C)cc3)C2)c(OC)c1 (stereo not given) |  | inconclusive: 10 µM [inhibitor, single point] | 
Cc1cccc(NC(=O)CN2C(=O)NC(c3ccccc3Cl)C3=C2COC3=O)c1 (stereo not given) |  | inconclusive: 10 µM [inhibitor, single point] | 
CCOc1cc(CNC(=O)c2ccccc2NC(=O)c2nsc3ccccc23)ccc1OC |  | inconclusive: 10 µM [inhibitor, partial curve, poor fit] | 
COc1ccc(C(=O)Nc2cccc(-c3nnc4n3CCCC4)c2)c(C)c1 |  | inconclusive: 11.2 µM [inhibitor, partial curve, poor fit] | 
CCOc1cccc(CC(=O)NCc2ccc3c(c2)CCN3C(=O)c2ccc(F)cc2)c1OCC |  |  | inactive
O=C(Cn1c(-c2cccs2)cc2ccccc21)N1CCN(c2ccccc2F)CC1 |  | inconclusive: 17.8 µM [inhibitor, single point] | 
COc1ccc(NC(=O)CSC2=Nc3ccccc3C3=NC(CC(=O)NCc4ccco4)C(=O)N23)cc1 (stereo not given) |  |  | inactive
CC1=C[C@@H](CN2CCN(CCO)CC2)[C@H](C(C)C)C[C@H]1Cc1nnc(-c2ccccc2F)o1 |  | inconclusive: 3.98 µM [inhibitor, partial curve, poor fit] | 
Cc1cc(C(=O)N2CCC3(CCCN(C4CCOCC4)C3=O)C2)no1 (stereo not given) | inactive: 3.15% |  | 
CCOc1ccc(CCNC(=O)Cn2c(-c3cccs3)cc3cc(F)ccc32)cc1OCC |  | inconclusive: 17.8 µM [inhibitor, single point] | 
CCOC(=O)C1CCN(C(=O)c2ccc3c(c2)N(CC)C2CCCCCN2C3=O)CC1 (stereo not given) |  | inconclusive: 5.62 µM [inhibitor, partial curve, poor fit] | 
Cc1ccccc1N1CCN(C(=O)c2nnn3c2COC(c2ccc(Cl)cc2)C3)CC1 (stereo not given) |  | inconclusive: 2.82 µM [inhibitor, partial curve, poor fit] | 
O=C([C@@H]1C[C@H](F)CN1S(=O)(=O)c1ccccc1F)N1CCc2ccccc2C1 | inactive: -8.12% |  | 
C[C@@H](NC(=O)c1ccc2c(c1)OCO2)c1onc(-c2cccnc2)c1C(=O)O | inactive: -11.9% [at 44.1 µM] |  | 
CCc1ccc(CN(Cc2ccco2)c2cnc(S(C)(=O)=O)nc2C(=O)Nc2c(C)cccc2C)cc1 |  | inconclusive: 17.8 µM [inhibitor, single point] | 
Cc1ccc(NC(=O)C2CCN(S(=O)(=O)c3ccc4[nH]c(=O)ccc4c3)CC2)cc1C |  | inconclusive: 0.0398 µM [inhibitor, full curve, poor fit] | 
COc1cccc(CC(=O)N2CCC(N3CC(OCC4CC4)C34CCOCC4)CC2)c1 (stereo not given) |  | inconclusive: 10 µM [inhibitor, partial curve] | 
